The source of these data is paper PMC4336329 (PLoS ONE, 2015).

About 14,000 (4.5%) of roughly 310,000 compounds showed an effect of 50% or more. Effects have a minus sign here. Some of the results follow.
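Further: peak tail current of the secondary pulse compared with the same well before compound.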

For the experiment, the target named is human ether-à-go-go-related gene (hERG) potassium channel (human, UniProt Q12809). In words: primary screen, population patch clamp on CHO cells stably expressing hERG.
Sequence of human ether-à-go-go-related gene (hERG) potassium channel (Q12809 whole entry, looked up): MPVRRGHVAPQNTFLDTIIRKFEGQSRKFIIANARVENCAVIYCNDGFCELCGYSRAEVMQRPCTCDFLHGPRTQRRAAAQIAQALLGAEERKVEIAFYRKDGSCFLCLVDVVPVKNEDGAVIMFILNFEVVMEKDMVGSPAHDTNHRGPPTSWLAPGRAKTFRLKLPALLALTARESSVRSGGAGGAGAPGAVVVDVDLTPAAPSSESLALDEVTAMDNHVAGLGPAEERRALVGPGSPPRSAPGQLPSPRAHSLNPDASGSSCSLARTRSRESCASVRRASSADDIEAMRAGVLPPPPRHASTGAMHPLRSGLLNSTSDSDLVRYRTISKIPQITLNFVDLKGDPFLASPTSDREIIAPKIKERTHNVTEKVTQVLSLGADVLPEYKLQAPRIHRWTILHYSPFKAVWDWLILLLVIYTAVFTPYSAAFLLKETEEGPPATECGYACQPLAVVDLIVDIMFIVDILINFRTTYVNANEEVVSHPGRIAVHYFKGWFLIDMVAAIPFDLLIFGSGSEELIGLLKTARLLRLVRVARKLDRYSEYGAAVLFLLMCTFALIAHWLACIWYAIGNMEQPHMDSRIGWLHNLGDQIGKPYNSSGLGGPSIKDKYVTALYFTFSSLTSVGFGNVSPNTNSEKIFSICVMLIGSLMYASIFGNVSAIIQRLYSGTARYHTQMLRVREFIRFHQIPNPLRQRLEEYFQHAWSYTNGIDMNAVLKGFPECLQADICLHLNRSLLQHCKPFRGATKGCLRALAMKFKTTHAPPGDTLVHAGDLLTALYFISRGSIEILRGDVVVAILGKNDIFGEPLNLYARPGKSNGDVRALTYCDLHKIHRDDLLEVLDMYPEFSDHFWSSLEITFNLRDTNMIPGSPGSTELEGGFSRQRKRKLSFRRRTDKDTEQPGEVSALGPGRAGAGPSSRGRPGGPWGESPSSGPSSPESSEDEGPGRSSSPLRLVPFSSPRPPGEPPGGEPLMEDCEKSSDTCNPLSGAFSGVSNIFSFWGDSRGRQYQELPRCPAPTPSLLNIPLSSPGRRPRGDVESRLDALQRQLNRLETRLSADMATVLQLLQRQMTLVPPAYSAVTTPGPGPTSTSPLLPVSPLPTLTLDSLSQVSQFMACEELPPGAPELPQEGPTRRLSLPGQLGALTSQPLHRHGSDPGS
For `CCCc1cc(=O)[nH]c2nnc(SCC(=O)Nc3cccc(NC(C)=O)c3)n12`, the “hERG current change (%, negative = inhibition) at 10uM” value is reported as 6.51%. Consider `COCCCNc1ncnc2nc[nH]c12`, for which the “hERG current change (%, negative = inhibition) at 10uM” value stood at 1.95%.

Turning to `CCCN(CC(=O)Nc1ccc(F)c(F)c1F)C(=O)C1CC(=O)N(Cc2ccccc2)C1` (stereo not shown), the “hERG current change (%, negative = inhibition) at 10uM” value was -26.9%.

For `Cc1ccc(OCC(=O)Oc2cccc(C)c2C)cc1`, the “hERG current change (%, negative = inhibition) at 10uM” value amounted to 12.6%. The same measure for `Cc1ccccc1C1CC(c2ccc(Br)cc2)Nc2nc(N)nn21` (stereo not shown): -52.3%; for `CSc1cccc(NS(=O)(=O)c2cn(C)cn2)c1`: 5.72%.

Turning to `COc1c(C)cccc1C(=O)NCc1ccc2c(c1)OCO2`, the “hERG current change (%, negative = inhibition) at 10uM” value is recorded as -2.64%.

As for `CC(C)C(=O)Nc1cccc(-c2csc(-c3ccccc3)n2)c1`, the “hERG current change (%, negative = inhibition) at 10uM” value worked out at 0.558%. The same measure for `O=C(CN(C(=O)CCC(=O)Nc1nccs1)c1ccc(F)cc1)NCC1CCCO1` (stereo not shown): 5.64%. As for `Cc1ccc(S(=O)(=O)N(CC(=O)Nc2ccc(F)cc2)C(=O)N2CCN(C)CC2)cc1`, the figure is 10.1%; as for `COc1ccc(CNC(=O)COC(=O)[C@H](Cc2c[nH]c3ccccc23)NC(=O)c2cccs2)cc1`, -0.701%. As for `COc1cc2oc(=O)c(Br)c(C)c2c(OC)c1OC`, the figure is -9.68%; as for `Cc1ccc(OCc2nnc(SCC(=O)Nc3nccs3)n2-c2ccccc2)cc1C`, 15.8%. `COc1ccc(OC)c(-n2c(=S)[nH]c3cc(C(=O)N4CCC(C(N)=O)CC4)ccc3c2=O)c1`: the “hERG current change (%, negative = inhibition) at 10uM” value is on record as -2.14%. For the molecule `COc1cccc(-c2cc(C(=O)N3CCCCCC3)no2)c1`, the “hERG current change (%, negative = inhibition) at 10uM” value is listed as -14.6%. Consider `Cc1cccc(N=C/C(C(=O)C(F)(F)F)=C(\O)c2ccco2)c1`, for which the “hERG current change (%, negative = inhibition) at 10uM” value was -16.8%. Consider `COc1cc2ccccc2cc1C(=O)Nc1ccc(S(=O)(=O)Nc2cc(C)on2)cc1`, for which the “hERG current change (%, negative = inhibition) at 10uM” value is listed as -9.57%.

As to `COc1ccccc1NC(CC(=O)c1ccccc1)C(=O)OCC(=O)c1ccc(C)cc1` (stereo not shown), the “hERG current change (%, negative = inhibition) at 10uM” value came out at 0.733%. As for `CS(=O)(=O)N(CC(=O)NCc1ccccn1)c1ccc2c(c1)OCCO2`, the figure is 7.53%. As for `COc1ccc(N(CC(=O)Nc2cc(OC)cc(OC)c2)S(=O)(=O)c2c(C)n[nH]c2C)cc1`, the figure is 10.3%.

On to `Cc1cc(N2C(=O)CC(N3CCN(C(c4ccccc4)c4ccccc4)CC3)C2=O)no1` (stereo not shown), for which the “hERG current change (%, negative = inhibition) at 10uM” value was -14.9%. The same measure for `NNC(=O)c1nnn(-c2nonc2N)c1CN1CCCC1`: 14%.

On to `Cc1ccc(C)c(S(=O)(=O)NCc2ccc(C(=O)NCc3ccco3)cc2)c1`, for which the “hERG current change (%, negative = inhibition) at 10uM” value was -29.1%. Turning to `COc1ccc(CCNC(=O)Cc2nn(C)c(=O)c3ccccc23)cc1OC`, the “hERG current change (%, negative = inhibition) at 10uM” value is given as 0.902%. In the case of `O=C(NCCN1C(=O)S/C(=C\c2ccc(Cl)cc2Cl)C1=O)C1=COCCO1`, the “hERG current change (%, negative = inhibition) at 10uM” value is given as -6.04%. As for `CCc1c(C2(O)CCCCC2)[nH]c2c(C(=O)OC)cc(Cl)cc12`, the figure is 12%; as for `O=c1c2ccccc2n2c(=S)[nH]nc2n1-c1ccccc1`, 38.4%; as for `Cc1c(OCC(=O)NCCN2CCOCC2)ccc2c(-c3ccccc3)cc(=O)oc12`, 3.21%. `Cc1ccc(NC(=O)CCn2cccc2)cc1F`: the “hERG current change (%, negative = inhibition) at 10uM” value turned out to be 9.94%. The same measure for `CS(=O)(=O)n1nc(-c2ccccc2)nc1NCc1ccco1`: -5.05%; for `CCOC(=O)C1=C(COC(=O)COc2cc(C)ccc2C)NC(=O)NC1C` (stereo not shown): 9.23%. As for `CN(CCNC(=O)C1CC(=O)N(c2ccc(F)c(Cl)c2)C1)Cc1ccccc1` (stereo not shown), the figure is -52.5%; as for `N[C@@]1(C(=O)O)CC[C@@H](C(=O)O)C1.O`, 13.1%. The same measure for `CCN(c1ccccc1)S(=O)(=O)c1cccc(C(=O)N2CCN(S(=O)(=O)c3ccccc3)CC2)c1`: 0.499%. For `Cc1ncc([N+](=O)[O-])n1CC(=O)N/N=C/c1ccc(F)cc1`, the “hERG current change (%, negative = inhibition) at 10uM” value was -13.6%.

For `COc1ccc(C2(c3ccc(OC)cc3)NC(=O)NC2=O)cc1`, the “hERG current change (%, negative = inhibition) at 10uM” value came to 15.6%.

As to `O=C(CC1SC2=NCCN2C1=O)Nc1ccc(Br)cc1` (stereo not shown), the “hERG current change (%, negative = inhibition) at 10uM” value was found to be 8.33%. Take `O=C(COC(=O)c1cccc(S(=O)(=O)N2CCN(c3ccccc3)CC2)c1)NCC1CCCO1` (stereo not shown): the “hERG current change (%, negative = inhibition) at 10uM” value is recorded as -2.84%. Regarding `CC(=O)N(Cc1ccc(Cl)cc1)c1cnccn1`, the “hERG current change (%, negative = inhibition) at 10uM” value is reported as 19.1%. The same measure for `CCOC(=O)C1CCCN(C(=O)Cn2cccc2C(=O)c2ccccc2)C1` (stereo not shown): -11.5%.

On to `COC(=O)CSc1nc(C)c(C)c(C)c1C(N)=O`, for which the “hERG current change (%, negative = inhibition) at 10uM” value is recorded as 11.7%. `CC(=O)NC1(c2nnnn2CCOC(=O)Nc2ccc(Cl)cc2)CCCC1`: the “hERG current change (%, negative = inhibition) at 10uM” value is -15.8%. For the molecule `CCOC(=O)c1nnn(-c2ccccc2)c1C`, the “hERG current change (%, negative = inhibition) at 10uM” value is on record as -6.45%. Turning to `Cn1nc(-c2ccccc2)c2cc(C(=O)O)sc21`, the “hERG current change (%, negative = inhibition) at 10uM” value is 34.4%. As for `CC1=CC(=O)C(C(C)=Nc2ccccc2Cl)C(=O)O1` (stereo not shown), the figure is -21.4%. The same measure for `O=C(/C=C/c1ccccc1)N/C(=C/c1ccccc1)C(=O)Nc1ccccc1O`: -27.3%. The same measure for `O=C(O)c1ccc2[nH]c3c(c2c1)CCCC3`: 18.8%; for `COCCCNC(=O)CCCn1c(=O)[nH]c2ccccc2c1=O`: 17.9%; for `COc1ccc2oc(-c3ccccc3[N+](=O)[O-])cc(=O)c2c1`: 20.4%.

In the case of `Cc1ccc(Nc2ncnc3sccc23)c(C)c1`, the “hERG current change (%, negative = inhibition) at 10uM” value came to 9.96%. The same measure for `Cc1ccc(NC(=O)CN2CCC(Cc3ccccc3)CC2)cc1S(=O)(=O)N(C)C.O=C(O)C(=O)O`: 9.69%; for `CCN(CC)S(=O)(=O)c1ccc(N2CCN(c3cccc(OC)c3)CC2)c([N+](=O)[O-])c1`: 11.5%. As to `O=c1c(Cc2c(F)cccc2Cl)c(O)ccn1Cc1ccc(F)cc1`, the “hERG current change (%, negative = inhibition) at 10uM” value is -0.211%.

Take `Cc1ccc(N(CC(N)=O)C2SC(=O)N(Cc3cccc(C(=O)O)c3)C2=O)cc1` (stereo not shown): the “hERG current change (%, negative = inhibition) at 10uM” value is reported as 21.8%. The same measure for `COc1ccccc1N1CCN(Cc2cc(=O)c(OCC#N)co2)CC1`: 12.5%; for `Cn1c(=O)[nH]c(=O)c2c1nc(N1CCCCCC1)n2CCSc1nc2ccccc2[nH]1`: -11.2%. Consider `Cc1cc(C(=O)Nc2cccc3ncccc23)no1`, for which the “hERG current change (%, negative = inhibition) at 10uM” value is 7.4%. With `Cc1ccc(/C(N)=N/OC(=O)c2ccc3ccccc3c2)cc1`, the “hERG current change (%, negative = inhibition) at 10uM” value is 0.62%. Regarding `COc1ccc(NC(=O)COc2ccc(/C=C/c3cc[n+](C)cc3)cc2OC)cc1.[I-]`, the “hERG current change (%, negative = inhibition) at 10uM” value worked out at 25.1%.

Take `COc1ccc(NC(=O)/C=C/C(=O)O)c(OC)c1`: the “hERG current change (%, negative = inhibition) at 10uM” value is reported as 11.7%. Turning to `CCCNS(=O)(=O)c1ccc(NC(=O)c2ccccn2)cc1`, the “hERG current change (%, negative = inhibition) at 10uM” value was -1.12%.

With `O=C(CCCOc1ccc(Cl)cc1)Nc1nncs1`, the “hERG current change (%, negative = inhibition) at 10uM” value is -28.9%. For the molecule `Nc1nonc1C(=O)N/N=C/c1ccncc1`, the “hERG current change (%, negative = inhibition) at 10uM” value worked out at 8.51%. As for `CCN(CC(=O)NCc1cccs1)S(=O)(=O)c1ccc(NC(C)=O)cc1`, the figure is -7.22%; as for `CCN(CC)CCNC(=O)c1ccc(NC(=O)CC(NC(=O)c2ccccc2Cl)c2ccccc2)cc1` (stereo not shown), 16%; as for `COC(=O)CSc1nc(C)c(C(=O)Nc2ccccc2C)c(-c2ccc(Cl)cc2)c1C#N`, 2.67%. The same measure for `COc1ccc(-c2csc(NC(=O)CCNC(=O)c3ccco3)n2)cc1OC`: -17.9%. Consider `Nc1nc(SCc2ccc(Br)cc2)[nH]c(=O)c1-c1ccccc1`, for which the “hERG current change (%, negative = inhibition) at 10uM” value is 11.4%. As for `CCCCc1cc(=O)oc2cc(C)c(CN3CCCC3)c(O)c12`, the figure is -24.7%; as for `COC(=O)N/N=C1/C/C(=N\NC(=O)OC)c2ccccc21`, 9.63%.

Take `CS(=O)(=O)c1ccc(C(=O)CN2C(=O)NC3(CCCc4ccccc43)C2=O)cc1` (stereo not shown): the “hERG current change (%, negative = inhibition) at 10uM” value is -51.5%. As for `COc1ccc(Nc2c3c(nc4ccccc24)CCC3)c(OC)c1`, the figure is -64.7%.

For the molecule `COc1ccc(NC(=O)c2cc(-c3ccc(C)cc3O)n[nH]2)c(OC)c1`, the “hERG current change (%, negative = inhibition) at 10uM” value is 32.1%.

Consider `CCOc1ccc(/C=C2\SC(=S)N(CC(=O)NCCCN3CCOCC3)C2=O)cc1`, for which the “hERG current change (%, negative = inhibition) at 10uM” value is on record as -17%. In the case of `COc1ccccc1N1CC(C(=O)Nc2nnc(SCc3ccccn3)s2)CC1=O` (stereo not shown), the “hERG current change (%, negative = inhibition) at 10uM” value is reported as -6.03%. The same measure for `O=C(NCc1ccncc1)C(=O)NCC1OCCN1S(=O)(=O)c1ccc(Br)cc1` (stereo not shown): -7.57%. As for `CCOc1ccccc1N1C(=O)c2ccc(C(=O)O)cc2C1=O`, the figure is 11%; as for `O=C(Nc1cccnc1)c1noc2c1CCCC2`, -4.38%. Turning to `CCC(C)OC(=O)C1=C(C)NC2=C(C(=O)C(C(=O)OC)C(C)C2)C1c1ccc(N(C)C)cc1` (stereo not shown), the “hERG current change (%, negative = inhibition) at 10uM” value is given as -9.27%. Regarding `CCc1noc(C)c1C(=O)N(CC)CC(=O)Nc1cc(Cl)ccc1C`, the “hERG current change (%, negative = inhibition) at 10uM” value stood at 10.3%. On to `O=S(=O)(c1ccc(Br)c2ccccc12)N1CCCC1`, for which the “hERG current change (%, negative = inhibition) at 10uM” value was found to be 22.2%. The same measure for `NNC(=O)c1cccc(S(=O)(=O)Nc2cc(Cl)ccc2Cl)c1`: 2.86%; for `CCn1nc(C(=O)OCC(=O)NCC(C)C)c2ccccc2c1=O`: 0.00988%; for `Cc1cc(-c2nn(-c3ccccc3F)cc2CN2CCC(C(N)=O)CC2)c(C)s1`: -28.5%. The same measure for `CC(C)n1cc(C(=O)c2cc(Br)ccc2O)cc(C#N)c1=O`: -4.75%; for `COc1cc(C(=O)NCC2CCCCC2)ccc1OCc1c(C)noc1C`: 2.61%. `CCOP(=O)(OCC)C(NC(=O)Nc1ccc(Cl)c(Cl)c1)c1ccccc1` (stereo not shown): the “hERG current change (%, negative = inhibition) at 10uM” value was 1.82%. The same measure for `CCOc1cccc(C2C(C(=O)c3cccs3)=C(O)C(=O)N2Cc2cccnc2)c1` (stereo not shown): 18.3%.
